Experimental data as given in PubChem BioAssay AID1240 (Sanford-Burnham Center for Chemical Genomics, 2008).
Among all 50,000 compounds or so, about 800 (1.6%) showed an effect of 50% or more. The list shows a part of the results.

target: Bcl-2-like protein 10 (Homo sapiens) (UniProt Q9HD36); assay: Phenotype converters, Bcl-B/TR3 peptide binding displacement, primary biochemical FP (AID 1240); conditions: GST-Bcl-B / FITC-TR3 peptide fluorescence polarization; stronger effect = higher value; compound at 3.75 mg/L;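 note: 0% = Bcl-B with tracer peptide and DMSO and 100% = tracer peptide lacking Bcl-B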
Sequence of UniProt Q9HD36 (Q9HD36 whole entry, looked up): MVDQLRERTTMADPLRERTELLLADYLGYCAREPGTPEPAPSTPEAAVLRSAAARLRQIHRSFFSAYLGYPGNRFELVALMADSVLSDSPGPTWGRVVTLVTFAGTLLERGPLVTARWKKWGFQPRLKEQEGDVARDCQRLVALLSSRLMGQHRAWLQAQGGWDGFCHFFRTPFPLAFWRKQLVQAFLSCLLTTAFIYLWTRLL

Going from O=C(Nc1nc(-c2ccccc2)c(-c2ccccc2)s1)c1ccccc1F to Cc1c(Nc2nc(-c3ccccc3)c(NC(=O)c3ccccc3)s2)c(=O)n(-c2ccccc2)n1C, the displacement falls from 13.1% to 3.1%.

First: O=[N+]([O-])c1ccc(N2CCN(Cc3ccccc3)CC2)nc1
Second: CNC(=O)c1ccc(CN2CCN(Cc3ccccc3)CC2)cc1
The displacement of the first is higher: 8.6% for the first, 0% for the second.

Going from Cc1ccc(C)c(COc2ccc3ccc(=O)oc3c2)c1 to Cc1cccnc1NC(=O)COc1ccc2ccccc2c1, the displacement falls from 6.5% to -0.5%.

First: Cc1ccc2nsnc2c1NC(=O)c1cc2ccccc2o1
Second: O=C(Nc1cccc2nsnc12)c1ccc(-c2cccc(Cl)c2)o1
The displacement of the first is higher: 6.6% for the first, 3.4% for the second.

Compared with CCOC(=O)c1c(NC(=O)c2ccccc2OC)sc(C(=O)N2CCCCC2)c1C, CCOC(=O)c1c(N)sc(C(=O)Nc2ccccc2OC)c1C is lower in displacement: 4.1% for the first, 0.8% for the second.

First: Brc1ccc(C=Nc2ccc(Oc3ccccc3)cc2)s1
Second: O=C(c1ccccc1Oc1ccccc1)N1CCN(c2ccc([N+](=O)[O-])cc2)CC1
The displacement of the first is lower: 2.2% for the first, 15.4% for the second.

Going from COc1cc([N+](=O)[O-])ccc1-c1ccc(/C=C2\C(=O)N(c3cccc(C(=O)O)c3)N=C2C)o1 to CCOc1ccc(/C=C2\C(=O)NC(=S)N(c3ccc(F)cc3)C2=O)cc1OC, the displacement rises from -17.7% to -8%.

Going from CC(=O)Nc1nc(-c2cc(C)ccc2C)cs1 to Cc1cc(C)cc(NC(=O)COc2cccc(C)c2C)c1, the displacement falls from 18.1% to 1.9%.

Cc1sc2ncn(-c3ccc(Cl)cc3)c(=O)c2c1C and COc1ccc(-n2c(SC)nc3sc4c(c3c2=O)CCCC4)cc1 are the same in displacement: -1.5% for the first, -1.5% for the second.

Compared with O=C(CCOc1ccccc1)Nc1ccccc1, O=C(CCc1ccccc1)Nc1ccc(Cl)cc1 is lower in displacement: 13.8% for the first, 5.7% for the second.

Compared with CC(=O)NS(=O)(=O)c1ccc(NC(=O)C2CCCCC2)cc1, CC(=O)c1ccc(NC(=O)C2CC(=O)N(C3CCCCC3)C2)cc1 (configuration not stated) is higher in displacement: -16.1% for the first, 11.1% for the second.

Going from O=C(CC(=O)c1ccccc1O)c1ccc(Br)cc1 to O=C(Nc1cccc(Br)c1)c1ccccc1, the displacement rises from 0.8% to 5.2%.

Compared with Cc1cc(C)n(C(=O)C(C)Oc2ccc(Cl)cc2C)n1 (configuration not stated), COc1cc(NC(=O)COc2ccc(Cl)cc2C)ccc1NC(=O)c1ccco1 is lower in displacement: -14% for the first, -51% for the second.

Going from Cc1ccc(S(=O)(=O)Oc2ccccc2/C=C2\SC(N)=NC2=O)cc1 to O=C1/C(=C\c2ccccc2[N+](=O)[O-])SC(=S)N1c1ccc(F)cc1, the displacement rises from -1% to 7.9%.

First: Cc1ccc(NC(=O)CCC(=O)N(CC(N)=O)CC(N)=O)cc1
Second: CCc1ccc(NC(=O)CN(c2ccc(C)cc2)S(=O)(=O)c2ccccc2)cc1
The displacement of the first is lower: -13.4% for the first, -7.7% for the second.

First: Cc1cc(OCC(=O)NCC2CCCO2)ccc1Br (configuration not stated)
Second: CCc1ccc(OCC(=O)Nc2cc(Cl)cc(Cl)c2)cc1
The displacement of the first is lower: 0.7% for the first, 12.4% for the second.

Going from CCCCc1nnc(NC(=O)Cc2ccccc2)s1 to CCCC(NC(=O)c1ccccc1)C(=O)OCC(=O)Nc1nnc(C)s1 (configuration not stated), the displacement rises from 6.3% to 25.9%.

Going from O=S(=O)(Nc1cccc(-c2cn3ccccc3n2)c1)c1ccc(-c2ccccc2)cc1 to Cc1ccc(Nc2nc(-c3ccc(-c4ccccc4)cc3)cs2)cc1, the displacement rises from -5.7% to 0.1%.

First: COc1cccc(NC2=C(Cl)C(=O)N(c3ccc(C)cc3C)C2=O)c1
Second: COc1ccc(/C=C2/SC(=O)N(CNc3cc(F)ccc3C)C2=O)cc1OC
The displacement of the first is higher: 8.5% for the first, 3.4% for the second.

Compared with CN(C)/N=C/c1ccc(-c2ccc(Cl)c(C(=O)O)c2)o1, CC(C)COc1ccc(C(=O)Nc2ccc(Cl)c(Cl)c2)cc1 is lower in displacement: 8% for the first, 2.1% for the second.

Compared with CSc1nnc2c(n1)OC(c1ccc(C)o1)Nc1ccccc1-2 (configuration not stated), Fc1ccccc1CSc1nc2ncccc2[nH]1 is higher in displacement: 0.6% for the first, 12.5% for the second.

Going from CC(=O)Nc1ccc(S(=O)(=O)N2CCN(c3ccc([N+](=O)[O-])cc3)CC2)cc1 to O=S(=O)(c1ccc(Cl)cc1)N1CCN(Cc2ccccc2Cl)CC1, the displacement falls from 10.7% to -12.8%.

Going from Cc1c(Br)c([N+](=O)[O-])nn1CC(=O)N1CCc2ccccc2C1 to COC(=O)c1cc(C(=O)N2CCN(c3ccccc3OC)CC2)cc([N+](=O)[O-])c1, the displacement falls from 10.5% to 0.7%.

Going from CCN(CC)CCCCCCOc1ccc(Br)cc1 to CCCCOc1cccc(C(=O)Nc2ccc(N(CC)CC)cc2)c1, the displacement falls from 13.1% to 1.2%.

Going from CCC(Oc1ccccc1)C(=O)Nc1ccc(C)c([N+](=O)[O-])c1 (configuration not stated) to CCOc1ccccc1/C=N/NC(=O)c1ccccc1[N+](=O)[O-], the displacement falls from 4.8% to -6.5%.

First: Cc1ccccc1-n1c(C)cc(/C=N/NC(=O)c2ccncc2)c1C
Second: CCN(CC)c1ccc(/C=N/NC(=O)CSc2nc3ccccc3n2Cc2ccccc2)c(O)c1
The displacement of the first is lower: -24% for the first, 0.4% for the second.

Compared with C/C(=N\N=C1\NC(=O)C(CC(=O)NCc2ccccc2)S1)C(C)C (configuration not stated), C/C(=N\N=C1/NC(=O)C(C)S1)c1ccc(Br)cc1 (configuration not stated) is higher in displacement: 0.3% for the first, 5.2% for the second.

First: CCN(CC)C(=O)C(=O)N/N=C/c1ccco1
Second: C#CCSc1nncn1C(=O)/C=C/c1ccco1
The displacement of the first is higher: 9.9% for the first, -22.6% for the second.

Going from NC(=O)c1ccc(N2CCOCC2)c([N+](=O)[O-])c1 to CCC(CO)Nc1cc(N2CCOCC2)ccc1[N+](=O)[O-] (configuration not stated), the displacement rises from 2.3% to 10.9%.

First: Cc1ccc(OCCCNC(C)(C)C)c(C)c1
Second: Cc1ccc(NC(NC=O)C(Cl)(Cl)Cl)c(C)c1 (configuration not stated)
The displacement of the first is higher: -3.4% for the first, -16% for the second.

Going from O=C(Nc1c[nH]c(=O)[nH]c1=O)c1ccc(Br)cc1 to COc1ccc(Br)cc1C(=O)Nc1ccc(Cl)cc1, the displacement falls from 12.4% to 1.9%.

Going from C=CCON1C(=O)C(=O)N(OCC=C)C2CCCCC21 (configuration not stated) to O=C(Nc1ccc(F)c([N+](=O)[O-])c1)C1CCCC1, the displacement falls from 14.2% to -8.3%.

Compared with Cc1onc(-c2ccccc2Cl)c1C(=O)N1CCN(C(=O)c2ccco2)CC1, CCOC(=O)N1CCN(c2nc(=S)n(-c3ccccc3)c(C)c2C(C)=O)CC1 is higher in displacement: -8.5% for the first, 3.4% for the second.

First: CCC1CCc2c(sc(NC(=O)CCC(=O)O)c2C#N)C1 (configuration not stated)
Second: O=C(O)CCCC(=O)Nc1nc(-c2ccc([N+](=O)[O-])cc2)cs1
The displacement of the first is higher: 13.6% for the first, -2.3% for the second.

First: CCOC(=O)CC(=O)c1[nH]c(C)c(C(=O)OCC)c1C
Second: CCOC(=O)C1C(=O)CC(C)(O)C(C(=O)OCC)C1c1ccc(OCC)cc1 (configuration not stated)
The displacement of the first is lower: 1.2% for the first, 4.2% for the second.

Compared with N#Cc1c2ncn(CC(=NO)c3ccccc3)c(=O)c2c2n1CCC2, CC1(C)CC(=O)c2sc(NC(=O)c3ccccc3)nc2C1 is lower in displacement: -3.6% for the first, -15% for the second.

Going from CCCOc1ccc(C(=O)Nc2ccc3oc(-c4cccnc4)nc3c2)cc1 to Brc1cccc(-c2nc(-c3cccnc3)no2)c1, the displacement falls from 13.2% to -7.2%.

Compared with CCOC(=O)c1c(-c2ccccc2)csc1NC(=O)c1ccccc1I, Cc1ccc(NC(=O)c2ccccc2NC(=O)c2cccs2)cc1 is lower in displacement: 10.1% for the first, 4% for the second.

First: COc1ccc(-n2sc3c(c2=S)-c2cc(OC)ccc2NC3(C)C)cc1
Second: COc1ccc(N=C(NOC(C)=O)c2ccc(Cl)cc2)c(OC)c1
The displacement of the first is lower: 2.1% for the first, 17% for the second.

Compared with CCOC(=O)C1=C(C)N=c2s/c(=C\c3cc4c(cc3Cl)OCO4)c(=O)n2C1c1cccc(OC)c1 (configuration not stated), CCOC(=O)c1c(NC(=O)c2cc(-c3ccc(C(C)C)cc3)nc3ccccc23)sc(C(N)=O)c1C is lower in displacement: 16.8% for the first, -11% for the second.

Going from CN(C)CCCNC(=O)c1c(Cl)cccc1Cl to CCc1ccc(NC(=O)C(=O)NCCCOC(C)C)cc1, the displacement falls from 11.4% to 4.5%.

First: COC(=O)c1ccc(N2C(=O)c3ccccc3C2=O)cc1
Second: CCOC(=O)COc1ccccc1/C=C1\C(=O)NN(c2ccccc2)C1=O
The displacement of the first is lower: 1.6% for the first, 3% for the second.

First: CCC(CCC(=O)O)NC(=O)c1ccccc1 (configuration not stated)
Second: O=C(Cc1ccccc1)Nc1cccc(NC(=O)c2ccc(Cl)cc2Cl)c1
The displacement of the first is higher: -4.8% for the first, -14.6% for the second.

Compared with CC1=C/C(=N/OS(=O)(=O)c2ccccc2)C=CC1=O, NC(=O)C1C(=O)Oc2ccccc2C1=O (configuration not stated) is lower in displacement: 28.6% for the first, -6.7% for the second.

Compared with C/C(=N\NC(=O)c1cc(C(C)(C)C)[nH]n1)c1ccc(Cl)cc1, CC(=O)Nc1ccc(S(=O)(=O)Nc2ccc(F)cc2F)cc1 is higher in displacement: -14.9% for the first, 2% for the second.

First: O=C(NCc1cccnc1)C(c1ccccc1)c1ccccc1
Second: CC(=O)Oc1c(-c2ccccc2)c2nc3ccccc3nc2c2ccccc12
The displacement of the first is lower: -14.2% for the first, 18.9% for the second.

Going from O=C(c1ccccc1)N1CN2CN(C(=O)c3ccccc3)CC(NC(=S)Nc3ccccc3)(C2)C1 to S=C(NCC1(c2ccccc2)CCOCC1)Nc1ccccc1, the displacement rises from -22.4% to -7.8%.

Going from O=C1c2ccc(Oc3ccc4c(c3)C(=O)N(CCCO)C4=O)cc2C(=O)N1CCCO to Cc1c(-n2c(CN3C(=O)c4ccccc4C3=O)nc3ccccc3c2=O)c(=O)n(-c2ccccc2)n1C, the displacement rises from -6.5% to 3.2%.

Compared with CC(=O)Oc1cc(N2CCOCC2)c(OC(C)=O)c2c1C(=O)c1ccccc1C2=O, COc1ccc2c(c1[N+](=O)[O-])CCC/C2=N/OC(=O)c1ccccc1SC is lower in displacement: 19.1% for the first, 12.7% for the second.

Compared with CCn1c2ccccc2c2cc(CNC(C)COC)ccc21 (configuration not stated), CCOc1cc(C=C2C(=O)NC(=S)NC2=O)ccc1OCCOc1ccccc1C is lower in displacement: 6.3% for the first, -3.3% for the second.

First: N/C(=N\N=C\c1cccc(O)c1)c1nonc1N
Second: Cc1ccc(C(=O)O/N=C(\N)Cc2cccs2)cc1[N+](=O)[O-]
The displacement of the first is lower: -2.2% for the first, 1.6% for the second.

Going from COC(=O)C1=C(C)NC(C)=C(C(=O)OC)C1c1ccc(OCC(N)=O)cc1 to COc1ccc(C(=O)CSc2nnc(SCC(=O)c3ccc(OC)cc3)n2-c2ccccc2)cc1, the displacement rises from 8.6% to 10.4%.

Going from Oc1[nH]c2ccc(Br)cc2c1N=Nc1ccc2ccccc2n1 to O=C1CC(N2CCN(c3ccccc3)CC2)C(=O)N1c1ccc(F)cc1 (configuration not stated), the displacement falls from 1.8% to 1.4%.

Compared with COc1cccc(/C=C2\SC(=S)N(C)C2=O)c1O, N=Cc1c(O)n(-c2c(Cl)cccc2Cl)c2ccc([N+](=O)[O-])cc12 is higher in displacement: 11% for the first, 12.3% for the second.

Going from CC(C)(C)c1cc(S(N)(=O)=O)c2cc(C(C)(C)C)cc(S(N)(=O)=O)c2c1 to CC(C)c1ccc(/C=C/C(=O)Nc2sc3c(c2C(N)=O)CCCC3)cc1, the displacement falls from 15.4% to 3.2%.

Compared with Nc1ccc2nc(SCc3ccc([N+](=O)[O-])cc3)sc2c1, FC(F)(F)COc1nc(N2CCOCC2)nc(N2CCN(c3ccccc3)CC2)n1 is lower in displacement: 4.6% for the first, -6.5% for the second.
